The record followed here is the supplement of paper PMC3334620.

In all, about 33,000 sequences were measured (“E-score (-0.5 to 0.5)”: median about -0.053, highest 2% from about 0.37 on). The list shows a part of the results.

The assay has as its target Hap1 (UniProt P0CE41). The experiment in a line: PBM E-score (8-mer binding enrichment) (E-score (-0.5 to 0.5)); higher = stronger / more preferred TF binding; most listed sequences are background and not binding sites. To be noted: protein concentration: 200 nM; construct: GST-DNA-binding domain. The method, then: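 Universal 'all 10-mer' protein binding microarrays (Agilent AMADID 015681) probed with GST-tagged S. cerevisiae TFs (full-length or DBD) made by in vitro transcription/translation (PURExpress), about 100-200 nM. Bound TF was detected with fluorescent anti-GST. Each ungapped 8-mer (which stands for itself and its reverse complement) is scored by the PBM enrichment score (E-score), a modified Wilcoxon-Mann-Whitney statistic from -0.5 to +0.5, computed with the Universal PBM Analysis Suite. Scale: above 0.35 generally sequence-specific binding.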
Chain of UniProt P0CE41 (P0CE41 whole entry, the tested form may be a part): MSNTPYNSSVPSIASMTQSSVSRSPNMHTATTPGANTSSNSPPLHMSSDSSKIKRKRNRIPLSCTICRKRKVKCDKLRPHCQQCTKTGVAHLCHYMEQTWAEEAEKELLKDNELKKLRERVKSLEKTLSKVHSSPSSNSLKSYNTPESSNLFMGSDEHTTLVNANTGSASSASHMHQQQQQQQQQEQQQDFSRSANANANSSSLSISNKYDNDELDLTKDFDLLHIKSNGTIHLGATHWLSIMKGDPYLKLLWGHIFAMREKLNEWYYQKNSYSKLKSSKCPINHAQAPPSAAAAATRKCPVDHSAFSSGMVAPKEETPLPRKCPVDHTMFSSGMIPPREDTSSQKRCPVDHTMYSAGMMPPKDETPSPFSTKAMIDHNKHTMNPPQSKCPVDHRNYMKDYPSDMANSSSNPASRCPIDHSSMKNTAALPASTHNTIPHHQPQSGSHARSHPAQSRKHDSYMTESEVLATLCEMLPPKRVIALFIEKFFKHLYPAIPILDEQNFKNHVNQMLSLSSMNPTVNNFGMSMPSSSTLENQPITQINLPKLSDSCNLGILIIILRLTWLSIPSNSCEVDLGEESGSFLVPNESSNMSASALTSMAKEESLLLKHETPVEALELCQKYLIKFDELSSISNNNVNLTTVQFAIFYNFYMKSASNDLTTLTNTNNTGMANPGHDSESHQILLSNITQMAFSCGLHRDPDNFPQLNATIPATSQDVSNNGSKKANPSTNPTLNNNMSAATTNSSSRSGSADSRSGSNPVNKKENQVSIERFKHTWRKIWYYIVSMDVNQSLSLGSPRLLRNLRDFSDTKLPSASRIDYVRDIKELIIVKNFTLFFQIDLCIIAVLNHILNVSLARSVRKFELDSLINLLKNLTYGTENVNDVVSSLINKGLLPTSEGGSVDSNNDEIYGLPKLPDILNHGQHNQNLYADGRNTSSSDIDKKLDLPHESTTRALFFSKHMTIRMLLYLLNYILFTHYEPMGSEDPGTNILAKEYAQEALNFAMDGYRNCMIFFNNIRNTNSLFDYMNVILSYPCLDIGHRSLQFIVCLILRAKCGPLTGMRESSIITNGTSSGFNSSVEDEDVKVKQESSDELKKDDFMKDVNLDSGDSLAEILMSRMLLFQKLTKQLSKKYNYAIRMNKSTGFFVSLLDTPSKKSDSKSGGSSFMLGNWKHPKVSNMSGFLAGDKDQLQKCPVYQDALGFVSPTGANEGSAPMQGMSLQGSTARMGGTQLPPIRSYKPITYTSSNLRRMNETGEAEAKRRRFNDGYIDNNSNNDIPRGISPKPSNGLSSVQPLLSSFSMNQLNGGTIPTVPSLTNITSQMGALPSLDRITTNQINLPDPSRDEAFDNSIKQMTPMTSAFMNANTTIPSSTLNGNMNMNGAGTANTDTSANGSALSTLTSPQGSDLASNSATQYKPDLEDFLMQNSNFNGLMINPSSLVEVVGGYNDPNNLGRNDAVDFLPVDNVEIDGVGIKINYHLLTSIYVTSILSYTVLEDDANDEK
Turning to GCAAGGGA, the “PBM E-score” value was -0.114.

With ATATTATC, the “PBM E-score” value was 0.0621.

Regarding ACCTTCAC, the “PBM E-score” value is -0.103. Then AGTCGCTA, with -0.209.

On to CATAGCCA, for which the “PBM E-score” value was -0.139.

Take CTAGGCCC: the “PBM E-score” value turned out to be 0.0188. Then AGCTGTGG, with -0.212; and GACTTCGC, with 0.247.

Consider CTGTTTGA, for which the “PBM E-score” value is -0.132. Then CGCTGTTC, with -0.0933; and AATGTAGG, with -0.206; and CCCTAGAC, with -0.342. In the case of AGTCCCTG, the “PBM E-score” value is -0.286. Then AGTTTTAA, with 0.0305. With AGGCTACG, the “PBM E-score” value is -0.244.

Consider ACCGAACG, for which the “PBM E-score” value turned out to be 0.257. With GCGCGAAA, the “PBM E-score” value was found to be 0.116. As for GTAAAAAC, the figure is -0.0259; as for GCTCCCTA, -0.169. Regarding CCTAAACG, the “PBM E-score” value was -0.0259.

For the sequence GCTCGGAA, the “PBM E-score” value worked out at 0.335.

Turning to CAAATCCC, the “PBM E-score” value was 0.1. With CTGTCCGA, the “PBM E-score” value is 0.317. In the case of CACAAGAC, the “PBM E-score” value was -0.319. As for AACAGGCT, the figure is -0.152; as for CATATCCA, -0.223. As for ATGGATCA, the figure is -0.116. For the sequence AAGCCTGG, the “PBM E-score” value is -0.0685. Then CCTGTGGC, with -0.185; and TAACTCTA, with -0.0411.

Turning to GCGCTAGA, the “PBM E-score” value was -0.0663. Then CAGAACAC, with -0.131; and TGGCTTAA, with -0.0483. Then AAGGTTCA, with -0.215.

As to TCGCTAGA, the “PBM E-score” value is -0.109.

Consider AAGAGTAT, for which the “PBM E-score” value is -0.244. For AGCACAGC, the “PBM E-score” value was 0.00459. Consider TTGGCCAA, for which the “PBM E-score” value is -0.206. In the case of AGGCCGAC, the “PBM E-score” value was 0.32.

With AGACTCGA, the “PBM E-score” value is -0.27.

Turning to ATTTGGCG, the “PBM E-score” value was -0.0748.

With GGTACCAC, the “PBM E-score” value is -0.128.

Consider GCATAAGA, for which the “PBM E-score” value turned out to be 0.0451. For the sequence CTCTGGAC, the “PBM E-score” value is -0.164.

As for CTCGGCTA, the “PBM E-score” value was 0.321. Regarding ATAGTACC, the “PBM E-score” value is 0.102. Then ATTGCCAG, with 0.114. In the case of AATACCAC, the “PBM E-score” value was -0.0139. Turning to ACTGTCCT, the “PBM E-score” value is -0.246.

On to AATTTCGG, for which the “PBM E-score” value was determined as 0.317. As for AAATTTTG, the “PBM E-score” value was -0.0619. As for AGCACTGC, the figure is -0.175; as for AAGTCAGC, -0.258. As for GCTTCTCC, the figure is 0.0789; as for CTGGTACC, 0.0305. Then TTCGCCAA, with 0.0199; and ACAGTGAC, with -0.0062.

As to CATCGGCG, the “PBM E-score” value worked out at 0.264.

Regarding CGTCAATA, the “PBM E-score” value is -0.0024. With ATGCGGAC, the “PBM E-score” value worked out at 0.206. As for ACACTCTG, the figure is -0.12; as for ACTCTGCG, -0.0115; as for CCGCCACC, 0.0123.

As for ATAGCGCG, the “PBM E-score” value is -0.0505. Take CTAATCCA: the “PBM E-score” value was -0.127. Then GAACTATC, with 0.0256. Consider CAGAACCG, for which the “PBM E-score” value came to 0.123. As for TAGCCCAA, the figure is -0.201.

On to CAACAAAC, for which the “PBM E-score” value stood at 0.0972. Then GTGCACAC, with -0.151. Then GTTTTGTA, with -0.144; and GACGCGAC, with -0.148; and CTCCCTTC, with -0.229. Then CTCTTGAC, with -0.174; and AACGGGTC, with 0.206; and AGCAAGAT, with -0.0194.

AGCGGTCA: the “PBM E-score” value is 0.178. In the case of TCTATTCA, the “PBM E-score” value is -0.234.

For GGCTGACA, the “PBM E-score” value came to 0.0808.

For CATTCGGC, the “PBM E-score” value is 0.293. On to ACGAGAGG, for which the “PBM E-score” value was -0.0344. For the sequence AATACAGA, the “PBM E-score” value was -0.0864. Consider TACTTCTA, for which the “PBM E-score” value is -0.0907. Then CGTACATA, with -0.0072; and GCGAATCC, with 0.0143; and ACCCGACT, with 0.278.

For AAGCCGAG, the “PBM E-score” value was 0.372. As for AACTATCA, the figure is -0.0298; as for CTGCGCGC, 0.152; as for GTATTACA, -0.00763. As for CGGTGCCA, the “PBM E-score” value amounted to 0.0856. Then AAAGGTGG, with -0.156. Take ACGGCCTA: the “PBM E-score” value stood at 0.157. AGATGGCA: the “PBM E-score” value is -0.0378. As for ACCTGAGC, the “PBM E-score” value is -0.279.

For ACTCAGAT, the “PBM E-score” value was -0.255. Then ACGATTAA, with -0.0506; and TCCGCGCA, with 0.244; and AACATTCG, with -0.0918.

Regarding AATTACCG, the “PBM E-score” value was found to be 0.374. As to GTTCAGAA, the “PBM E-score” value is -0.218. On to AGTGGATG, for which the “PBM E-score” value is -0.147. Regarding AACAAGAA, the “PBM E-score” value is -0.104. Turning to TACCTGAA, the “PBM E-score” value is -0.211. Consider ACAGACCC, for which the “PBM E-score” value is -0.0437. Then AAAGCCCG, with 0.374; and GACCGGAC, with 0.41; and CACGAGTC, with -0.147.

For CTCTAATC, the “PBM E-score” value was -0.00646. As for ACCTTCGC, the figure is -0.035.
